According to patent publication US8044100B2, “Methods and compositions for treating amyloid-related diseases” (Bellus Health Inc., priority 2004, dated 2011):
Some results were stated once for a whole list of compounds, not compound by compound.

What follows are molecules tested against Aβ40 (Homo sapiens, UniProt P05067) (assay: Mass spectrometry (MS) assay for binding to soluble Aβ40). Settings: 150 μM test compound and 30 μM solubilized Aβ40, pH 7.4.
Aβ40, sequence (P05067 672-711 limits assumed): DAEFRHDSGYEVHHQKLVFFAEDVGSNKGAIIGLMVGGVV

SMILES	Aβ binding (%)
CC[C@@H](NCCCS(=O)(=O)O)c1ccccc1 [OR, 3-{[(1R)-1-phenylpropyl]amino}-1-propanesulfonic acid]	40-69%
CC(C)(NCCCS(=O)(=O)O)C(N)=O [OS, 3-(1-Carbamoyl-1-methylamino)-1-propanesulfonic acid]	15-39%
CC(C)CCC(C)NCCCS(=O)(=O)O (stereo not shown) [OV, 3-(1,4-dimethyl-pentylamino)-1-propanesulfonic acid]	≧70%
CC(C)CCCC(C)NCCCS(=O)(=O)O (stereo not shown) [OW, 3-(1,5-dimethyl-hexylamino)-1-propanesulfonic acid]	≧70%
CCCC(C)NCCCS(=O)(=O)O (stereo not shown) [OX, 3-(1-methyl-butylamino)-1-propanesulfonic acid]	40-69%
CCCCCCC[C@@H](C)NCCCS(=O)(=O)O [OY, (R)-(+)-3-(1-methyl-octylamino)-1-propanesulfonic acid]	≧70%
COc1cc(CC2(NCCCS(=O)(=O)O)CCCCC2)cc(OC)c1 [OZ, 3-{[1-(3,5-dimethoxy)cyclohexyl]amino}-1-propanesulfonic acid]	40-69%
O=S(=O)(O)CCCNC1(Cc2ccc(Cl)cc2Cl)CCCCC1 [PA, 3-{[1-(3,5-dimethoxy)cyclohexyl]amino}-1-propanesulfonic acid]	40-69%
COc1cc(CC(C)(C)NCCCS(=O)(=O)O)cc(OC)c1 [PB, 3-{[2-(3,5-dimethoxyphenyl)-1,1-dimethylethyl]amino}-1-propanesulfonic acid]	15-39%
CC(C)(Cc1ccc(Cl)cc1Cl)NCCCS(=O)(=O)O [PD, 3-{[2-(2,4-dichlorophenyl)-1,1-dimethylethyl]amino}-1-propanesulfonic acid]	≧70%
CCCOc1ccc(CC(C)(C)NCCCS(=O)(=O)O)cc1 [PF, 3-{[1,1-dimethyl-2-(4-propoxyphenyl)ethyl]amino}-1-propanesulfonic acid]	40-69%
O=S(=O)(O)CCC1CCCCN1 (stereo not shown) [PG, 2-piperidinylethanesulfonic acid]	40-69%
C#CC(C)(C)NCCCS(=O)(=O)O [PH, 3-(1,1-Dimethyl-prop-2-ynylamino)-1-propanesulfonic acid]	40-69%
C[C@@H](NCCCS(=O)(=O)O)c1ccc(Br)cc1 [PI, (R)-(+)-3-[1-(4-bromophenyl)ethylamino]-1-propanesulfonic acid]	≧70%
CC(C)[C@@H]1CC[C@@H](C)C[C@H]1NCCCS(=O)(=O)O [PK, (−)-3-[(1R,2S,5R)-2-Isopropyl-5-methyl-cyclohexylamino]-1-propanesulfonic acid]	≧70%
CCCC[C@H](C)NCCCS(=O)(=O)O [PL, 3-{[(1S)-1-methylpentyl]amino}-1-propanesulfonic acid]	40-69%
CC(C)[C@H](C)NCCCS(=O)(=O)O [PN, 3-{[(1S)-1,2-dimethylpropyl]amino}-1-propanesulfonic acid]	15-39%
C[C@@H](NCCCS(=O)(=O)O)C(C)(C)C [PO, 3-{[(1R)-1,2,2-trimethylpropyl]amino}-1-propanesulfonic acid]	15-39%
CC(C)[C@@H](C)NCCCS(=O)(=O)O [PP, 3-{[(1R)-1,2-dimethylpropyl]amino}-1-propanesulfonic acid]	15-39%
CC(CCc1ccccc1)NCCCS(=O)(=O)O (stereo not shown) [PQ, 3-(1-Methyl-3-phenylpropylamino)-1-propanesulfonic acid]	40-69%
COc1cccc(C(O)C2(NCCCS(=O)(=O)O)CCCC2)c1 (stereo not shown) [PR, 3-({1-[hydroxy(3-methoxyphenyl)methyl]cyclopentyl}amino)-1-propanesulfonic acid]	40-69%
CCCCC[C@H](C)NCCCS(=O)(=O)O [PS, 3-{[(1S)-1-methylhexyl]amino}-1-propanesulfonic acid]	40-69%
CCCCCC[C@H](C)NCCCS(=O)(=O)O [PT, 3-{[(1S)-1-methylheptyl]amino}-1-propanesulfonic acid]	≧70%
CCCNCCCS(=O)(=O)O [PU, 3-(1-propylamino)-1-propanesulfonic acid]	15-39%
CCCCCC[C@@H](C)NCCCS(=O)(=O)O [PV, 3-{[(1R)-1-methylheptyl]amino}-1-propanesulfonic acid]	40-69%
CCCCC[C@@H](C)NCCCS(=O)(=O)O [PW, (R)-3-{[1-methylhexyl]amino}-1-propanesulfonic acid]	≧70%

SMILES	Aβ binding (%)
O=C1C=C(NCCCS(=O)(=O)O)CCC1 [PX, 3-[(3-oxocyclohex-1-en-1-yl)amino]-1-propanesulfonic acid]	15-39%
CCCCNCCCS(=O)(=O)O [PY, 3-(1-butylamino)-1-propanesulfonic acid]	40-69%
CC(C)(C)N(CCCS(=O)(=O)O)Cc1ccccc1 [PZ, 3-[benzyl(tert-butyl)amino]-1-propanesulfonic acid]	15-39%
COc1cccc([C@@H](C)NCCCS(=O)(=O)O)c1 [QA, (R)-3-{[1-(3-methoxyphenyl)ethyl]amino}-1-propanesulfonic acid]	15-39%
C=CCC(C)(C)NCCCS(=O)(=O)O [QB, 3-[(1,1-dimethylbut-3-enyl)amino]-1-propanesulfonic acid]	40-69%
Cc1ccc(CNCCCS(=O)(=O)O)cc1 [QC, 3-[(4-methylbenzyl)amino]-1-propanesulfonic acid]	40-69%
C=CC(C)(C)NCCCS(=O)(=O)O [QE, 3-[(1,1-dimethylprop-2-enyl)amino]-1-propanesulfonic acid]	40-69%
CCC(CC)(NCCCS(=O)(=O)O)C(N)=O [QF, 3-[(1-Carbamoyl-1-ethyl)propylamino]-1-propanesulfonic acid]	40-69%
CC(C)(C)c1ccc(CNCCCS(=O)(=O)O)cc1 [QG, 3-[(4-tert-butylbenzyl)amino]-1-propanesulfonic acid]	≧70%
CCC(NCCCS(=O)(=O)O)c1cccc(OC)c1 (stereo not shown) [QH, 3-{[1-(3-methoxyphenyl)propyl]amino}-1-propanesulfonic acid]	40-69%
CC(C)(Cc1ccccc1O)NCCCS(=O)(=O)O [QI, 3-{[2-(2-hydroxyphenyl)-1,1-dimethylethyl]amino}propane-1-sulfonic acid]	40-69%
CS(=O)(=O)c1ccc(CNCCCS(=O)(=O)O)cc1 [QK, 3-{[4-(methylsulfonyl)benzyl]amino}-1-propanesulfonic acid]	15-39%
C[C@@H](NCCCS(=O)(=O)O)c1ccc([N+](=O)[O-])cc1 [QL, (R)-(+)-3-[1-(4-nitrophenyl)ethylamino]-1-propanesulfonic acid]	40-69%
C=CC(CC)(CC)NCCCS(=O)(=O)O [QM, 3-[(1,1-diethylprop-2-enyl)amino]-1-propanesulfonic acid]	40-69%
CC(C)(C)NCCC(Cc1ccccc1)S(=O)(=O)O (stereo not shown) [QN, 4-(tert-butylamino)-1-phenyl-2-butanesulfonic acid]	40-69%
C=CCC(CCNC(C)(C)C)S(=O)(=O)O (stereo not shown) [QO, 1-(tert-butylamino)hex-5-ene-3-sulfonic acid]	15-39%
O=S(=O)(O)C1CCNCC1 [QP]	40-69%
C=CCC(CCN)S(=O)(=O)O (stereo not shown) [QR, 1-aminohex-5-ene-3-sulfonic acid]	40-69%
N[C@H](/C=C/S(=O)(=O)O)Cc1ccccc1 [QT, (1E,3S)-3-amino-4-phenylbut-1-ene-1-sulfonic acid]	≧70%
N[C@H](CCS(=O)(=O)O)Cc1ccccc1 [QU, (3S)-3-amino-4-phenylbutane-1-sulfonic acid]	≧70%
Cc1ccc(F)cc1CNCCCS(=O)(=O)O [QW]	≧70%
NC(CCS(=O)(=O)O)C12CC3CC(CC(C3)C1)C2 (stereo not shown) [QX, 3-(1-adamantyl)-3-aminopropane-1-sulfonic acid]	40-69%
NCC(CS(=O)(=O)O)C1C2CC3CC(C2)CC1C3 (stereo not shown) [SX, 2-(2-adamantyl)-3-aminopropane-1-sulfonic acid]	≧70%
NC(CCS(=O)(=O)O)C1C2CC3CC(C2)CC1C3 (stereo not shown) [SY, 3-(2-adamantyl)-3-aminopropane-1-sulfonic acid]	≧70%
NCC(CS(=O)(=O)O)C12CC3CC(CC(C3)C1)C2 (stereo not shown) [SZ, 2-(1-adamantyl)-3-aminopropane-1-sulfonic acid]	≧70%

Same assay, conditions: @ 200 μM test compound and 20 μM solubilized Aβ40, pH 7.4; class limits; compounds tested at 200 or 400 μM

SMILES	Aβ binding (%)
O=S(=O)(O)CCCN1CCN(c2ccc(F)cc2)CC1 [P]	20-39% @ 400 μM
O=C(O)CCN1CC=C(c2ccccc2)CC1 [Q]	20-39% @ 400 μM

Same assay, conditions: @ 400 μM test compound and 40 μM solubilized Aβ40, pH 7.4; class limits; compounds tested at 200 or 400 μM

SMILES	Aβ binding (%)
O=S(=O)(O)CCCN1CCN(c2ccc(F)cc2)CC1 [P]	20-39% @ 400 μM
O=C(O)CCN1CC=C(c2ccccc2)CC1 [Q]	20-39% @ 400 μM

These molecules were tested on SH-SY5Y cells (assay: Neuroprotection: Aβ42-induced cell death in SH-SY5Y cells, Hoechst staining). Settings: 12 μM Aβ1-42, 240 μM compound (1:20 Aβ:drug ratio), 24 hours.
Assay type: cell-based, human

SMILES	Inhibition of Aβ-induced toxicity (%)
CC(C)(NCCCS(=O)(=O)O)c1cccc(Cl)c1 [Compound N67, 3-(3-chlorophenyl-2-propylamino)-1-propanesulfonic acid]	<20%
Cc1cccc2c1CCC2NCCCS(=O)(=O)O (stereo not shown) [Compound N68, 3-[(4-methylindan-1-yl)amino]propane-1-sulfonic acid]	<20%
NCCC(Cc1ccccc1)(Cc1ccccc1)S(=O)(=O)O [Compound N75, 4-amino-1-dibenzyl-2-butanesulfonic acid]	20%-40%
CC(C)(c1ccccc1)C(CN)CS(=O)(=O)O (stereo not shown) [Compound N80]	20%-40%
Cc1ccc2c(c1)C(NCCCS(=O)(=O)O)CC2 (stereo not shown) [Compound N81, 3-[(6-methylindan-1-yl)amino)propane-1-sulfonic acid]	20%-40%
NCC(Cc1cccs1)CS(=O)(=O)O (stereo not shown) [Compound N83, 3-amino-2-(thien-2-ylmethyl)propane-1-sulfonic acid]	20%-40%
